Measurements from the antibiotic and cytotoxicity screens of Wong et al. (2023).
The other results are listed elsewhere or left out.

Test system: HepG2
Experiment: cytotoxicity call (relative viability < 0.9)
Details: 10 µM

Structure (SMILES)	cytotoxicity call
CC(C)NC(=O)Nc1ccc2c(c1)C(=O)N([C@H](C)CO)C[C@H](C)[C@H](CN(C)C(=O)Nc1ccccc1)OCCCC[C@@H](C)O2	inactive
Nc1ccn2ccnc2c1	inactive
CCc1c(C)[nH]c(=S)c(C#N)c1C	inactive
COc1ccc(C#Cc2ccc3c(c2)O[C@@H](CN(C)C(=O)c2ccccn2)[C@@H](C)CN([C@@H](C)CO)S3(=O)=O)cc1	inactive
COc1ccc(S(=O)(=O)N(C)C[C@H]2OCCCC[C@H](C)Oc3ccc(NS(=O)(=O)c4ccc(Cl)cc4)cc3C(=O)N([C@@H](C)CO)C[C@@H]2C)cc1	inactive
C[C@H](CO)N1C[C@H](C)[C@H](CN(C)S(C)(=O)=O)Oc2ccc(NC(=O)Cc3cn(C)c4ccccc34)cc2C1=O	inactive
CC1=C(C(=O)O)N2C(=O)[C@@H](NC(=O)[C@H](N)C3=CCC=CC3)[C@H]2SC1	inactive
C[C@H](CO)N1C[C@H](C)[C@H](CN(C)Cc2cccnc2)Oc2cc(C#CCN(C)C)ccc2S1(=O)=O	inactive
CO[C@@H]1CN(C)C(=O)c2ccc(NC(=O)C3CCOCC3)cc2OC[C@H](C)N(Cc2cccnc2)C[C@@H]1C	inactive
C[C@@H]1CN([C@H](C)CO)C(=O)c2cc(NS(=O)(=O)c3ccccc3)ccc2O[C@@H](C)CCCCO[C@H]1CN(C)Cc1ccc(C(=O)O)cc1	inactive
Cc1noc(C)c1NC(=O)N(C)C[C@H]1OCCCC[C@H](C)Oc2ccc(NC(=O)C3CCCCC3)cc2C(=O)N([C@H](C)CO)C[C@@H]1C	inactive
COC(=O)c1sc2ccccc2c1NC(=O)c1ccc(S(=O)(=O)N2C[C@@]3(C)C[C@@H]2CC(C)(C)C3)cc1	inactive
O=C(Cc1ccncc1)NCC[C@@H]1CC[C@H](NC(=O)C2CCOCC2)[C@H](CO)O1	inactive
CCCNC(=O)Nc1ccc2c(c1)C(=O)N(C)C[C@@H](OC)[C@H](C)CN(Cc1ccc(-c3ccccn3)cc1)[C@H](C)CO2	inactive
C[C@@H]1CCCCO[C@@H](CN(C)C(=O)Nc2ccc3c(c2)OCO3)[C@H](C)CN([C@@H](C)CO)C(=O)c2cc(NC(=O)c3ccccc3)ccc2O1	inactive
COc1cccc(S(=O)(=O)N(C)C[C@@H]2Oc3ncc(C#Cc4ccc(OC)c(OC)c4)cc3C(=O)N([C@H](C)CO)C[C@@H]2C)c1	inactive
COc1ccc(-c2cnc3c(c2)C(=O)N([C@@H](C)CO)C[C@@H](C)[C@H](CN(C)C(=O)Cc2ccncc2)O3)cc1	inactive
C[C@H]1CN([C@@H](C)CO)S(=O)(=O)c2ccc(C#Cc3ccccc3F)cc2O[C@@H]1CN(C)C(=O)Cc1ccncc1	inactive
COc1ccc(NC(=O)N(C)C[C@H]2Oc3cc(C#CCN(C)C)ccc3S(=O)(=O)N([C@@H](C)CO)C[C@H]2C)cc1	inactive
C[C@@H]1O[C@@H](O[C@H]2[C@H](O[C@H]3[C@H](O)[C@@H](C(=O)O)O[C@@H](O[C@H]4CC[C@]5(C)[C@H]6CC[C@]78OC[C@@]9(CCC(C)(C)C[C@@H]97)[C@H](O)C[C@@]8(C)[C@]6(C)CC[C@H]5C4(C)C)[C@@H]3OC3O[C@H](CO)[C@@H](O)[C@H](O)[C@H]3O)O[C@H](CO)[C@H](O)[C@@H]2O)[C@H](O)[C@H](O)[C@H]1O (stereo partly drawn)	active
O=C(CCCCCCC(=O)Nc1ccc([C@H]2C[C@H](c3ccccc3)O[C@H](c3ccccc3)O2)cc1)NO	inactive
COc1ccc(S(=O)(=O)N(C)C[C@H]2Oc3ccc(NS(C)(=O)=O)cc3C(=O)N([C@H](C)CO)C[C@@H]2C)cc1	inactive
CCS(=O)(=O)N1C[C@]2(CN(C2)C(=O)c2ccc3c(c2)OCO3)c2c(n(c3cc(ccc23)OC)C)[C@@H]1CO	inactive
C[C@H]1CCCCO[C@H](CN(C)S(=O)(=O)c2ccccc2)[C@@H](C)CN([C@@H](C)CO)C(=O)c2cc(NS(=O)(=O)c3ccc(Cl)cc3)ccc2O1	inactive
C[C@H](CO)N1C[C@H](C)[C@@H](CN(C)Cc2ccc(C(=O)O)cc2)Oc2ccc(NC(=O)c3ccncc3)cc2C1=O	inactive
COc1ccc(NC(=O)N(C)C[C@@H]2OCCCC[C@H](C)Oc3ccc(NC(=O)Cc4ccccc4)cc3C(=O)N([C@H](C)CO)C[C@@H]2C)cc1	inactive
CCCN(CCC)c1cc(N2CCCC2)c2ccccc2c1	active
C[C@@H]1CN([C@@H](C)CO)C(=O)c2cc(NC(=O)c3ccccc3)ccc2O[C@@H](C)CCCCO[C@@H]1CN(C)S(=O)(=O)c1ccc(F)cc1	inactive
